These results are taken from PubChem BioAssay (NCATS).

This test in a line: qHTS Assay for Lipid Storage Modulators (AID 1519). The note with it: Drosophila S3 cells, BODIPY lipid droplet/cell ratio, laser cytometry, cells loaded with oleic acid. In outline:
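Cells seeded at 5,000 per well were treated with compounds over a concentration series and loaded with oleic acid (400 uM, as added). Lipid droplet fluorescence (488 nm excitation, 500-530 nm channel) was read by laser-scanning cytometry and normalized to 20 uM Triacsin C.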
(In qHTS, concentration-response curves come from the screen itself.)

Setting [1] is: measured here: cell count channel max response.
The mark [2] stands for this setting: measured here: cell number channel AC50.
[3] abbreviates: measured here: lipid (BODIPY) channel AC50.
The mark [4] stands for this setting: measured here: lipid channel max response.

The other results are listed elsewhere or left out. These are further read-outs of the screen, such as a control signal, another cell line or another target. No call is given for them. Most of these compounds were active or inconclusive in the main read-out, so they are no random draw. Words in brackets tell the shape of the fitted curve; partial curves, single points and poor fits give uncertain potencies.
Tags give direction and shape of the fitted curve.

As for `CN(C)c1nc(-c2ccc3c(c2)OCO3)nc2ccccc12`, the max response under setting [1] is 16.2% and the max response under setting [4] stood at 24.8%. Besides, the AC50 runs as follows: under setting [2], 5.62 nM [rising, full curve, poor fit]; under setting [3], 6.31 nM [rising, full curve, poor fit].

As to `COc1cccc(Cn2c(=O)c(-c3ccc(Cl)cc3)nc3cnc(N(C)C)nc32)c1`, the max response came out at 20.6% under setting [1] and 25.4% under setting [4]. Besides, the concentration at half-maximal activity (AC50) under setting [2] is 39.8 nM [rising, full curve, poor fit] and the AC50 under setting [3] is 56.2 nM [rising, full curve].

Turning to `CS(=O)(=O)Nc1ccc([N+](=O)[O-])cc1OC1CCCCC1`, the max response by setting is: under setting [1], 33.3%; under setting [4], 40.6%. For the same molecule, the AC50 by setting is: under setting [2], 35500 nM [rising, single point]; under setting [3], 31600 nM [rising, single point].

Regarding `COc1ccc(C(=O)N2CCC[C@@]3(CCN(c4cccc(-c5ccccc5)c4)C3)C2)cc1`, the max response is -3.77% under setting [1] and -60.5% under setting [4]. In addition, the AC50 under setting [2] was 7080 nM [rising, single point] and the AC50 under setting [3] was 35500 nM [falling, single point].

Consider `COc1ccc(-n2c(=O)c(CCc3ccccc3)nc3cnc(N(C)C)nc32)cc1`, for which the max response under setting [1] is 22.2% and the max response under setting [4] came out at 26.8%. Moreover, the AC50 is 56.2 nM [rising, full curve, poor fit] under setting [2] and 35.5 nM [rising, full curve, poor fit] under setting [3].

`COc1cccc(-c2nccc(NCc3ccc(OC)cc3OC)n2)c1`: the max response under setting [1] turned out to be 24.4% and the max response under setting [4] came out at 31.7%. The AC50 under setting [2] was 1580 nM [rising, full curve] and the AC50 under setting [3] was 1580 nM [rising, full curve].

Consider `CN(C)c1nc(-c2cccc(NS(C)(=O)=O)c2)nc2ccccc12`, for which the max response by setting is: under setting [1], 23.4%; under setting [4], 23.9%. Besides, the AC50 by setting is: under setting [2], 178 nM [rising, full curve, poor fit]; under setting [3], 355 nM [rising, full curve].

On to `COc1ccc(CNc2cc(-c3ccccc3C)ncn2)c(OC)c1`, for which the max response is, setting by setting: under setting [1], 20.6%; under setting [4], 29.8%. Further, the AC50 is, setting by setting: under setting [2], 1580 nM [rising, full curve, poor fit]; under setting [3], 1410 nM [rising, full curve, poor fit].

Regarding `O=S(=O)(c1ccccc1)N1CCC[C@@]2(CCN(Cc3ccccc3)C2)C1`, the max response runs as follows: under setting [1], 14.8%; under setting [4], 22.8%. Besides, the AC50 was 8910 nM [rising, single point] under setting [2] and 31.6 nM [rising, full curve, poor fit] under setting [3].

For `C[C@@H](C1=C(CCN(C)C)Cc2ccccc21)c1ccccn1`, the max response by setting is: under setting [1], 60.7%; under setting [4], 80.4%. The AC50 reads like this: under setting [2], 35500 nM [rising, single point]; under setting [3], 35500 nM [rising, single point].

Regarding `CN(C)c1ncc2nc(-c3ccccc3)c(=O)n(Cc3cccs3)c2n1`, the max response was determined as 17.6% under setting [1] and 24% under setting [4]. Besides, the AC50 is 4470 nM [rising, single point] under setting [2] and 4470 nM [rising, full curve, poor fit] under setting [3].

For the molecule `COC1(C2=NCCN2)COc2ccccc2O1` (stereo unspecified), the max response is -6.96% under setting [1] and -3.46% under setting [4]. Also, the AC50 reads like this: under setting [2], 3160 nM [falling, partial curve, poor fit]; under setting [3], 2820 nM [falling, partial curve, poor fit].

For `COc1ccc(CCNC[C@@H](O)c2ccc(O)cc2)cc1OC`, the max response by setting is: under setting [1], 62.5%; under setting [4], 61.1%. The AC50 was 39800 nM [rising, single point] under setting [2] and 39800 nM [rising, single point] under setting [3].

Consider `C=CC(C1=CC(=O)C(OC)=C(OC)C1=O)c1ccccc1` (stereo unspecified), for which the max response is -51.3% under setting [1] and -91.9% under setting [4]. Moreover, the half-maximal activity concentration (AC50) reads like this: under setting [2], 25100 nM [falling, single point]; under setting [3], 28200 nM [falling, single point].

Consider `COc1ccccc1-c1nccc(N2CCN(C)CC2)n1`, for which the max response was 32.3% under setting [1] and 36.6% under setting [4]. The AC50 is, setting by setting: under setting [2], 5620 nM [rising, full curve]; under setting [3], 7080 nM [rising, full curve].

For the molecule `CC1c2cccc(O)c2C(O)=C2C(=O)[C@]3(O)C(O)=C(C(N)=O)C(=O)C(N(C)C)C3C(O)C21` (stereo partly specified), the max response came to 32.4% under setting [1] and 50.1% under setting [4]. In addition, the concentration at half-maximal activity (AC50) reads like this: under setting [2], 6310 nM [rising, partial curve, poor fit]; under setting [3], 5620 nM [rising, partial curve].

For the molecule `O=c1c(-c2ccc(Cl)cc2)nc2cncnc2n1Cc1ccc(F)cc1`, the max response under setting [1] was determined as 17% and the max response under setting [4] was 22.4%. Also, the AC50 reads like this: under setting [2], 1410 nM [rising, full curve, poor fit]; under setting [3], 1120 nM [rising, full curve, poor fit].

On to `CO/N=C(/C(=O)NC1C(=O)N2C(C(=O)O)=C(COC(N)=O)CSC12)c1ccco1` (stereo unspecified), for which the max response was 26.2% under setting [1] and 43.6% under setting [4]. The AC50 was 2240 nM [rising, full curve, poor fit] under setting [2] and 2510 nM [rising, full curve] under setting [3].

With `O=c1c(-c2ccc(F)cc2)nc2cncnc2n1Cc1ccccc1`, the max response reads like this: under setting [1], 31.2%; under setting [4], 37.4%. In addition, the AC50 under setting [2] was 355 nM [rising, full curve] and the AC50 under setting [3] was 355 nM [rising, full curve].

Usually AC50 stands for the midpoint of the concentration-response curve, whichever way the signal moves.
